# Assay results published in the supplement of paper PMC4604168 (melanoma cell lines).
# This is one part of the list. Repeats are few or missing, and single values can be far off.
# System: SkMel30
# Assay: cell count relative to DMSO control; melanoma cells; higher = more viable cells
# Settings: library dose: low library concentration; 72 h; first compound 0.4 µM
# 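Also: cell number obtained by counting DAPI-stained nuclei in high-throughput microscope images with image analysis software, screen run in 1,536-well plates.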
row,Compound,cell count [%]
1,CCCCCCCCCCCCCCCCCCOP(=O)([O-])OC1CC[N+](C)(C)CC1 [Perifosine] + OCCn1cc(-c2cnc3nnn(Cc4ccc5ncccc5c4)c3n2)cn1 [PF04217903] (partner dose 1 µM),78.3
2,C[C@@H](N)c1ccc(C(=O)Nc2ccnc3[nH]ccc23)cc1 + CN(C)S(=O)(=O)c1ccc2c(c1)/C(=C/c1cc3c([nH]1)CCCC3)C(=O)N2 [SU6656] (partner dose 0.4 µM),147
3,Cn1sc(=O)n(Cc2ccccc2)c1=O + Cc1cc([N+](=O)[O-])ccc1NS(=O)(=O)c1cc(Cl)ccc1Cl [FH535] (partner dose 1 µM),82.3
4,Cn1sc(=O)n(Cc2ccccc2)c1=O + CC(C)CCN1c2nc(Nc3cc(F)c(O)c(F)c3)ncc2N(C)C(=O)C1C [BID1870] (partner dose 0.2 µM),94.2
5,C[C@@H](N)c1ccc(C(=O)Nc2ccnc3[nH]ccc23)cc1 + c1cc(-c2cnn3cc(-c4ccc(OCCN5CCCCC5)cc4)cnc23)ccn1 [Dorsomorphin] (partner dose 0.4 µM),115
6,CCCCCCCCCCCCCCCCCCOP(=O)([O-])OC1CC[N+](C)(C)CC1 [Perifosine] + CC(C)(C)c1cnc(CSc2cnc(NC(=O)C3CCNCC3)s2)o1 [SNS-032] (partner dose 0.01 µM),55.8
7,C[C@@H](N)c1ccc(C(=O)Nc2ccnc3[nH]ccc23)cc1 + O=c1cc(-c2cccc3c2Sc2ccccc2S3)oc(N2CCOCC2)c1 [KU55933] (partner dose 1 µM),121
8,CCCCCCCCCCCCCCCCCCOP(=O)([O-])OC1CC[N+](C)(C)CC1 [Perifosine] + C[C@@H]1CCN(C(=O)CC#N)C[C@@H]1N(C)c1ncnc2[nH]ccc12 [CP690550] (partner dose 1 µM),122

# System: SkMel5
# Assay: as above
# Settings: library dose: low library concentration; 72 h; first compound 0.4 µM
row,Compound,cell count [%]
1,Cn1sc(=O)n(Cc2ccccc2)c1=O + c1cc(-c2cnn3cc(-c4ccc(OCCN5CCCCC5)cc4)cnc23)ccn1 [Dorsomorphin] (partner dose 0.4 µM),101
2,C[C@@H](N)c1ccc(C(=O)Nc2ccnc3[nH]ccc23)cc1 + Oc1nc(-c2ccc(C(F)(F)F)cc2)nc2c1CSCC2 [XAV939] (partner dose 2 µM),84.5
3,CCCCCCCCCCCCCCCCCCOP(=O)([O-])OC1CC[N+](C)(C)CC1 [Perifosine] + Cn1cc(/C=C2\C(=O)Nc3cccnc32)c2ccccc21 [GW441756] (partner dose 0.4 µM),86.9
4,C[C@@H](N)c1ccc(C(=O)Nc2ccnc3[nH]ccc23)cc1 + CN(NC(=O)CC(=O)NN(C)C(=S)c1ccccc1)C(=S)c1ccccc1 [STA4783] (partner dose 0.006 µM),88.5
5,C[C@@H](N)c1ccc(C(=O)Nc2ccnc3[nH]ccc23)cc1 + COc1cc2ncnc(Nc3ccc(Oc4ccccc4)cc3)c2cc1OC [SrcI1] (partner dose 2 µM),89
6,Cn1sc(=O)n(Cc2ccccc2)c1=O + N#Cc1c(O)c2c(-c3ccc(-c4ccccc4O)cc3)csc2[nH]c1=O [A769662] (partner dose 2 µM),95.7
7,CCCCCCCCCCCCCCCCCCOP(=O)([O-])OC1CC[N+](C)(C)CC1 [Perifosine] + c1cc(-c2cnn3cc(-c4ccc(OCCN5CCCCC5)cc4)cnc23)ccn1 [Dorsomorphin] (partner dose 0.4 µM),91.2
8,Cn1sc(=O)n(Cc2ccccc2)c1=O + O=c1cc(-c2cccc3c2Sc2ccccc2S3)oc(N2CCOCC2)c1 [KU55933] (partner dose 1 µM),93.6
9,C[C@@H](N)c1ccc(C(=O)Nc2ccnc3[nH]ccc23)cc1 + COc1cc2c(Oc3ccc4[nH]c(C)cc4c3F)ncnc2cc1OCCCN1CCCC1 [cediranib] (partner dose 0.4 µM),67.2
10,C[C@@H](N)c1ccc(C(=O)Nc2ccnc3[nH]ccc23)cc1 + COc1ccc(-c2ccc3c(N4CCOCC4)nc(N4C[C@@H](C)O[C@@H](C)C4)nc3n2)cc1CO [KU0063794] (partner dose 0.02 µM),81.9
11,C[C@@H](N)c1ccc(C(=O)Nc2ccnc3[nH]ccc23)cc1 + COC(=O)c1sccc1S(=O)(=O)Nc1ccc(Nc2ccccc2)cc1OC [GSK0660] (partner dose 1 µM),78.8
